Measurements published in PubChem BioAssay AID1259407 (Chemical Carcinogenesis Research Information System (CCRIS), 2018).
Entries after “also recorded” stand apart in the source; their conditions may differ. For part of its entries the source gives two or more results. The other results are left out here. No rule for the calls is given here. An entry can have further records. The records of an entry differ, and nothing given here explains why; dose, time, organism, isomer or construct need not be as stated for each record. Marks in square brackets tell the records apart. A, B and so on number the origins entry by entry.

Test system: CCRIS mutagenicity, Ames/micronucleus/aberration tests
Test: CCRIS mutagenicity studies
[1] = Test System: AMES SALMONELLA TYPHIMURIUM, Strain/Indicator: TA100, Metabolic Activation: RAT, LIVER, S-9, AROCLOR 1254, Method: STANDARD PLATE
[2] = End Point: IN VITRO CHROMOSOMAL ABERRATIONS, Test System: CHL CELLS, Metabolic Activation: NONE
[3] = Test System: AMES SALMONELLA TYPHIMURIUM, Strain/Indicator: TA98, Metabolic Activation: NONE, Method: STANDARD PLATE

Question: For `C#C[C@]1(O)CC[C@H]2[C@@H]3CCc4cc(O)ccc4[C@H]3CC[C@@]21C`, which mutagenic call (End Point: IN VIVO CHROMOSOMAL ABERRATIONS, Test System: BONE MARROW CELLS, Species: MOUSE, Strain/Sex: SWISS ALBINO, Route: ORAL (GAVAGE)) is on record?
Answer: Its mutagenic call is “active; positive (2 higher doses) and inactive; negative”.

Question: With `O=c1c(O)c(-c2ccc(O)cc2)oc2cc(O)cc(O)c12` as the compound, how does the mutagenic call (Test System: AMES SALMONELLA TYPHIMURIUM, Strain/Indicator: TA100, Metabolic Activation: HAMSTER, LIVER, S-9, AROCLOR 1254, Method: STANDARD PLATE) read?
Answer: The mutagenic call was “active; positive [study A] and inactive; negative [study B]”.

Question: And the mutagenic call [1]?
Answer: The mutagenic call was “active; positive [study A] and active; positive [study B] and inactive; negative [study C]”.

Question: How did the mutagenic call (Test System: AMES SALMONELLA TYPHIMURIUM, Strain/Indicator: TA1535, Metabolic Activation: RAT, LIVER, S-9, AROCLOR 1254, Method: STANDARD PLATE) turn out when `C=CC(=O)OCC(CC)(COC(=O)C=C)COC(=O)C=C` was run?
Answer: The mutagenic call was “inactive; negative [study A] and active; positive [study B] and inactive; negative [study B]”.

Question: `Cc1ccc(N=C=O)cc1N=C=O` was tested. Which mutagenic call [2] did it give?
Answer: Its mutagenic call is “inactive; negative; also recorded: inactive; negative; authors report equivocal results for ploidy changes at 0.1 mg/ml”.

Question: And the mutagenic call (End Point: IN VITRO CHROMOSOMAL ABERRATIONS, Test System: CHO CELLS, Metabolic Activation: NONE)?
Answer: The mutagenic call was “inactive; negative; precipitation occurred at 500 and 750 ug/ml; also recorded: inactive; negative; precipitation occurred at all doses”.

Question: What about the mutagenic call (Test System: AMES SALMONELLA TYPHIMURIUM, Strain/Indicator: TA100, Metabolic Activation: RAT LIVER S-9, PHENOBARBITAL AND BETA-NAPHTHOFLAVONE, Method: PREINCUBATION) of the same compound?
Answer: The mutagenic call was “inactive; negative and active; positive”.

Question: How did the mutagenic call (End Point: In vitro chromosomal aberrations, Test System: Primary rat lymphocytes, Metabolic Activation: None) turn out when `Nc1cc(Cl)nc(C(=O)O)c1Cl` was run?
Answer: Its mutagenic call is “inactive; negative; also recorded: active; positive (chromatid breaks) at doses producing a greater than or equal to 50% re”.

Question: What does the source list for `ClC(Cl)(Cl)Cl`?
Answer: mutagenic call [3]: inactive; negative [study A] and active; positive [study B]; mutagenic call (Test System: AMES SALMONELLA TYPHIMURIUM, Strain/Indicator: TA100, Metabolic Activation: NONE, Method: STANDARD PLATE): inactive; negative [study A] and active; positive [study B]; mutagenic call [1]: inactive; negative [study A] and active; positive [study B]; mutagenic call (Test System: E. coli, Strain/Indicator: WP2uvrA/pKM101, Metabolic Activation: None, Method: Gas exposure method): inactive; negative and active; positive; mutagenic call (Test System: E. coli, Strain/Indicator: WP2uvrA/pKM101, Metabolic Activation: Rat, Liver, S9, Sodium phenobarbital and 5,6-benzoflavone (10%), Method: Gas exposure method): inactive; negative and active; positive

Question: Which mutagenic call [1] does the source give for `CC(=O)Nc1ccc2c(c1)Cc1ccccc1-2` here?
Answer: The mutagenic call was “inactive; negative [study A] and active; positive [study B] and inactive; negative [study C]”.

Question: And the mutagenic call (Test System: AMES SALMONELLA TYPHIMURIUM, Strain/Indicator: TA1537, Metabolic Activation: RAT, LIVER, S-9, AROCLOR 1254, Method: STANDARD PLATE)?
Answer: Its mutagenic call is “active; positive [study A] and inactive; negative [study B]”.

Question: Which mutagenic call [2] does the source give for `Cc1ccc(N)c(C)c1` here?
Answer: Its mutagenic call is “active; positive (structural changes) and inactive; negative”.

Question: `Nc1nc(Cl)nc2c1ncn2[C@H]1C[C@H](O)[C@@H](CO)O1` was tested. Which mutagenic call (End Point: In vitro chromosomal aberrations, Test System: Human peripheral lymphocytes, Metabolic Activation: None) did it give?
Answer: Its mutagenic call is “active; positive and inactive; negative”.

Question: Which mutagenic call [3] does the source give for `CCOc1ccc(NC(C)=O)cc1N` here?
Answer: The mutagenic call was “active; positive [10 to 10000 µg/plate] and inactive; negative [3.3 to 10000 µg/plate]”.

Question: And the mutagenic call (Test System: AMES SALMONELLA TYPHIMURIUM, Strain/Indicator: TA100, Metabolic Activation: HAMSTER, LIVER, S-9, Method: STANDARD PLATE)?
Answer: The mutagenic call was “inactive; negative [10 to 10000 µg/plate] and active; positive [3.3 to 10000 µg/plate]”.

Question: What about the mutagenic call [1] of the same compound?
Answer: The mutagenic call was “inactive; negative [10 to 10000 µg/plate] and active; positive [3.3 to 10000 µg/plate]”.

Question: And the mutagenic call (Test System: AMES SALMONELLA TYPHIMURIUM, Strain/Indicator: TA1537, Metabolic Activation: MOUSE, LIVER, S-9, Method: STANDARD PLATE)?
Answer: Its mutagenic call is “active; positive [10 to 10000 µg/plate] and inactive; negative [10 to 3333.3 µg/plate]”.

Question: What about the mutagenic call (Test System: AMES SALMONELLA TYPHIMURIUM, Strain/Indicator: TA1537, Metabolic Activation: NONE, Method: STANDARD PLATE) of the same compound?
Answer: Its mutagenic call is “inactive; negative [10 to 10000 µg/plate] and active; positive [10 to 3333.3 µg/plate]”.

Question: What about the mutagenic call (Test System: AMES SALMONELLA TYPHIMURIUM, Strain/Indicator: TA1537, Metabolic Activation: RAT, LIVER, S-9, Method: STANDARD PLATE) of the same compound?
Answer: Its mutagenic call is “active; positive [10 to 10000 µg/plate] and inactive; negative [10 to 3333.3 µg/plate]”.

Question: And the mutagenic call (Test System: AMES SALMONELLA TYPHIMURIUM, Strain/Indicator: TA1538, Metabolic Activation: MOUSE, LIVER, S-9, Method: STANDARD PLATE)?
Answer: Its mutagenic call is “active; positive and inactive; negative”.

Question: What about the mutagenic call (Test System: E. COLI, Strain/Indicator: WP2 UVRA, Metabolic Activation: RAT, LIVER, S-9, AROCLOR 1254, Method: STANDARD PLATE) of the same compound?
Answer: Its mutagenic call is “inactive; negative and active; positive”.
